Experimental data taken from the supplement of paper PMC11417369.
The other results are listed elsewhere or left out.

test system: PF3D7_0420300 AP2 domain 1 (GST-tagged); test: gcPBM binding intensity (ln(normalized median fluorescence intensity)); higher = stronger DNA binding
In short: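 Binding intensity is the highest Masliner-normalised natural-log median intensity over replicate spots in either probe orientation. To obtain it, GST-tagged P. falciparum DNA-binding domains made in E. coli were incubated for 1 h on an Agilent 4 × 180k array of primer-extended double-stranded 36-bp intergenic genomic probes plus negative controls. Detection used Alexa488 anti-GST antibody with scanning at 488 nm.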

Sequence	gcPBM binding intensity (ln)
CAAAAGAAGGTAAACACACACACACCCATACAAAAA [CACACA_site3765]	10.1
AAAATACATATATATATATATAATATTGTTGTTAAA [GTGCAC_negctrl_site519]	9.13
CATATTTACATTAAGTGTACTTATGAATATATATAC [XGTACX_site7962]	9.17
ATAATATTTTATAATTGTACTTTTTATAAATATAAA [XGTACX_site1940]	9
ATATTTTTTTTCATTTGTACACATAAAATTATATAG [XGTACX_site8260]	9.37
TTTTTATTTTTAGTAGTGCATTAATCATATGGTCAT [GTGCAC_site9879]	9.04
TAAATAAATCCACATACACACACGACGCTAGTATAT [CACACA_site1060]	9.77
AATATTTTATTTTTTCTCATTAAAAATTTTTTTTTT [CACACA_negctrl_site364]	9.01
GATAGATAATATTTTAGTACATAAACAATTAAATAT [XGTACX_site4125]	9.3
AATATATAAACCGAACGTACATATTTTTTATACACC [XGTACX_site2121]	9.53
TGTTATATGTTCAAATGTACAAATCATATACATGTT [XGTACX_site3192]	9.2
GTGTACAGACACAAAATATATACATATATATATATA [CACACA_negctrl_site1796]	9.15
TATTTTCATAATAAAAAAAAATAATTTAAAAAATAT [CACACA_negctrl_site748]	8.66
ATTATTTTCTCATAGAGTACAAATGTTGTTGTTGTC [XGTACX_site1062]	9.15
TGTGCACATAATTAGTGTACATTTTTTATTTAGACA [XGTACX_site317]	8.98
AATGGCAAAATAGGCACACACACATATACATATATA [CACACA_site1058]	10.1
AATTATATTTGAAATACACACATAAAAATCATATAG [CACACA_site3468]	9.64
AGATTTAAATATCATACACACTTTATATATAATACA [CACACA_site4688]	9.35
ATTAGAGAATCGTAACCCAAATGAACATACTTAAAT [GTGCAC_negctrl_site363]	9.43
AAAAAAAAAAAAAATACACACATATAAATATAAATA [CACACA_site6189]	9.73
CTTATTGATTTAAAAAGTACATATATGTATATACAC [XGTACX_site4072]	9.15
GAGCGTAATCTATTTGCACACTTATTTGTTCTTAAA [CACACA_site673]	9.48

Sequence	gcPBM binding intensity (ln)
GTGTATAATATAGGATGTACAATAAAACACCGATTG [XGTACX_site7429]	9.43
TTGTTTATCAACAGCACACACAACAACAACAACAAC [CACACA_site458]	9.49
ATAAAAACATAAACAAATCAAAAAAAAAAAAAAAAA [CACACA_negctrl_site13]	8.86
AAATAATGAAACAAAGTGCATAAAAATATACATATA [GTGCAC_site9467]	9.47
ATGGATTATACGTGCACACATATATACCAATAAATA [CACACA_site4524]	9.43
CATTAAAATATGAGATGTACACAATATCTATTATAT [XGTACX_site4979]	9.3
ATTTAAATATCTTCTTTTTTTTTTTTTTTTGAAATT [CACACA_negctrl_site1074]	8.94
TTTCACCATATAAACGTGCACACTACAAAAATATAT [CACACA_site2547]	9.36
AAATAATAAATTATAACACACATATATATATATATA [CACACA_site4045]	9.2
ATAATACAATTTATAACACACACACTATAATACATA [CACACA_site8338]	9.97
TTCATGCTTATATGTGCACACACAAAAGAAAAGAAA [CACACA_site1656]	9.6
GGAAAGACAGTTCACAGTACCCAGTAACTCTACGGA [XGTACX_site2009]	9.2
TTATATAGGTCATTCATAAATACAGTTTTTAAAAAA [CACACA_negctrl_site1340]	8.84
AATTCATTATATATACGTACATATTTCTGTATAAAA [XGTACX_site6371]	9.24
ATTTATTTCACAAAAACATGCAGTTTGAAATTGCCA [TGCATGCA_site910]	8.96
GCATAAATTATCATAACATAAATATAAAAATATAAT [GTGCAC_negctrl_site55]	9.18
GATTATTTTATAAGTACACACATTTATATATAATAA [CACACA_site2573]	9.44
ATATATATATATATATGTACATATATATTGTTGATC [XGTACX_site8893]	9.21
ACATATTATTCAAGTGCACACTTTATATTTATGATT [CACACA_site3295]	9.52
ATTTAATTCGTACATACACACGCACATATATATATA [CACACA_site8415]	9.72
TACAATAATGATTGTTGTACATTATTGATATTTAAA [XGTACX_site2940]	9.06
TTTAATTTTTAATCAGTGCAATATTATATAATATAT	9.08

Sequence	gcPBM binding intensity (ln)
AAAAAAAAACAGAAAACACACAAATTATCTTAGAAT [CACACA_site309]	9.61
ATTAATTCGTTTTGTACACACATAATGAATAATTTA [CACACA_site2235]	9.31
TCATTTTAATTAAAAGTGCAAAAAATAATATAACTA [GTGCAC_site9968]	9.1
AATAATTCATCATATGCACACACAATACCAAAATGT [CACACA_site7945]	9.83
TATATGAAATATTATGCACACAATATATAATATGAT [CACACA_site936]	9.51
CAAAAATAATAGAATACATGCAAAAATAAATGTATA [TGCATGCA_site196]	9.48
ATAATATATTTAATCATACACACATTTATGTACCTA [CACACA_site1719]	9.58
AAAAATAAAGGGTGTGCACACAAAAATATATATATA [CACACA_site1727]	9.94
TTTTTTTTTAAAACATAATAAAAAATAAAACAACCT [GTGCAC_negctrl_site92]	9.31
ATATATGCATATATATGTACATATATATATATATAT [XGTACX_site7403]	9.22
AATAAATAAAAAATTACACACATATATATAAATATA [CACACA_site3434]	9.57
ATATTTTTAGATTCAGAAAAAAGATTCAACTTACTC [CACACA_negctrl_site1357]	8.99
TAAATTATAAATTGCACACATATTTTTATATTTATA [CACACA_site2976]	9.25
TATTTCATATGAAGAAGTACTATTAATAATTTCCTT [XGTACX_site6587]	8.96
TTAATACATACATTCACACACACTAATTGTATATTT [CACACA_site9362]	9.86
ATATATATATATAATACACACTTATGAAATGTCTAA [CACACA_site5077]	9.36
TTCTTTTTTCGACACACACACACAAGAAGATATATA [CACACA_site7456]	10.1
TGTACAAATATGTTGAAAATAAAATTTCAATATATT [XGTACX_negctrl_site13]	9.02
ATACGAATAAATTTCGCATGCAGCATATATATCAAT [TGCATGCA_site612]	9.17
AACGAAAATAAGAAAAGTACAAAAAATACCAAATAA [XGTACX_site6171]	9.69
TGCCCTAACCATACTACACACACTGCTCAAAATAGT [CACACA_site2219]	9.81
TATATATATTTATAATGTACACATATATGTAAATAT [XGTACX_site3695]	9.23

Sequence	gcPBM binding intensity (ln)
TACAATATAAAATACACACACACAAACATATATTTA [CACACA_site5941]	10.2
AAGAACCATATTTAAACACACATACCTATATAAATA [CACACA_site7553]	9.49
ATAATTATATACCATGCACACAAATATTCATACAGG [CACACA_site9343]	9.66
TATATACACATTTTTATACACACTTGTTTTATAAAA [CACACA_site8139]	9.39
TTATGCATATATTATGCATGTAGTTTTAAATCACAT [TGCATGCA_site104]	8.89
AAAAAATACATACATACACACATATTTATTTATATA [CACACA_site6554]	9.63
GCACAAATATATATATATATATATATATATATATAT [GTGCAC_negctrl_site661]	9.06
AATAAATAAATAAATAAATAAATATATATATATATA [GTGCAC_negctrl_site330]	9.13
TAATGACAATAAAAATAAATAAATAAAAAAAAAAAA [TGCATGCA_negctrl_site321]	9.18
ATATATTATCTGTACACACACATATAAGGGATTATA [CACACA_site4180]	9.69
AAGGCATATATAATTTGTACATATTAAGAATTAGAT [XGTACX_site8660]	9.24
TTTTTTGAAAATAAATGTACGAATTTTATATTTAAA [XGTACX_site2768]	8.68
TGAAATAAAATTATTTGTACATATCGGAAAAAAAAA [XGTACX_site7131]	9.16
AAGAAAATAAAAAGGTAAATATGTATAAATAAATAA [TGCATGCA_negctrl_site88]	9.33
GATACAGATGGACACACACACATACATAAATACATA [CACACA_site5833]	10
AAATTACCCATCCATACACACATATTTTTTTTAATT [CACACA_site2189]	9.68
AAAATATATTATTATTGTACATATATTTTCATTTAC [XGTACX_site4593]	9.37
AATTTTTATACGGATACACACAAAAAAAAATAAAAA [CACACA_site897]	9.53
TAAATATATTTATAAGCACACACTAATAAACCCACA [CACACA_site390]	9.83
TTTATTTTGTTTATGGTGCATTTTATGTAAATATAT	9.4
AGTAGCGGCGGTATCATGCACACGTATAGATTGTAA [CACACA_site1587]	9.32
TTGTTTATATATATATGTACATATTTTAAGGCATCC [XGTACX_site6976]	9.1
